# Results as given in the supplement of paper PMC7826260.
# The list shows a part of the results. Cleavage of a single-stranded DNA pool by Rep nickase domains was read by sequencing for 1 h at 37 °C with 3 µM enzyme; only the middle of the 90-letter strands is printed. Uncut reads are compared with the no-enzyme pool on a log2 scale; uncut sequences lie near 0, cut ones below; no hit call is given. Counts are relative to all reads; where an enzyme cuts many sequences, the uncut ones exceed 0.
# System: T1, Rep nickase domain of tomato yellow leaf curl virus
# T1 sequence (residues 1-136, tag not shown): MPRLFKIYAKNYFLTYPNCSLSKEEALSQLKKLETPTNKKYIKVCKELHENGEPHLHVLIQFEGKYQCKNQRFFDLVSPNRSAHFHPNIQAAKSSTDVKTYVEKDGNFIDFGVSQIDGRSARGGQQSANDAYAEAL
# Assay: uncleaved DNA left, log2 of reads against the no-enzyme library (log2 ratio); higher = less cleavage (more negative = more Rep cleavage of the k-mer); sequences stand for … in CTCGTCCG…ACCGGAGA
# Protocol: (§1)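 A pool of 90-nt single-stranded DNAs with seven random bases just before the constant AC of the nick site (name = the seven bases) was cut by 3 µM recombinant His6-SUMO-tagged Rep nickase domain (300 nM DNA, 50 mM HEPES pH 8.0, 50 mM NaCl, 1 mM MnCl2, 1 h, 37 °C, three replicates). Uncut DNA was amplified and sequenced.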
row,Sequence,uncleaved DNA left (log2)
1,GCGTGTC,-0.00398
2,CGGGCGA,0.0813
3,TCCTCTT,-0.195
4,CGGCGGC,0.0492
5,ATATGAG,0.0753
6,AACTCTG,-0.016
7,AGGGGCT,-0.0812
8,CAGTTAT,-0.0805
9,GAGGAGC,0.221
10,CACTCCC,-0.0141
11,TCCTTAC,-0.203
12,GTCCATA,0.0858
13,AAATCCT,-0.233
14,CGTAATC,0.0439
15,CTTTCGT,0.1
16,AGTGCCG,-0.206
17,GTTAGGG,-0.0453
18,CTTAGTG,0.0848
19,TACTTGG,0.0641
20,GTGTATG,0.229

row,Sequence,uncleaved DNA left (log2)
1,GGTTGTT,0.052
2,TATTTGG,-0.00821
3,CTCAGAC,-0.0705
4,CGTAGTC,0.0467
5,AAGTCGT,-0.0957
6,CGGGGAG,-0.0172
7,CGGACCT,-0.181
8,ACTCCAC,0.0289
9,ATTTCAC,-0.132
10,TCAGGTC,-0.00331
11,AACTAGG,0.138
12,ACACAAA,-0.0304
13,TCTAGAT,-0.213
14,ACACAGA,0.0145
15,TATGTTC,0.0389
16,GCCCCTG,-0.00991
17,GACGCGT,-0.13
18,CTAGCCA,0.0917
19,GAGACAG,0.158
20,TTGGAGA,-0.0782

# System: T2, Rep nickase domain of wheat dwarf virus
# T2 sequence (residues 1-137, tag not shown): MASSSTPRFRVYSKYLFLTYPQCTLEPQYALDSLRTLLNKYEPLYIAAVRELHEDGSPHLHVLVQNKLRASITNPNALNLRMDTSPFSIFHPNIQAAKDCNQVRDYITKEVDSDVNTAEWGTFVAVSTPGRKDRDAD
# Assay: as above
# Protocol: as §1
row,Sequence,uncleaved DNA left (log2)
1,GCGTGTC,-0.081
2,CGGGCGA,0.0345
3,TCCTCTT,-0.172
4,CGGCGGC,-0.0277
5,ATATGAG,0.0464
6,AACTCTG,-0.00326
7,AGGGGCT,0.102
8,CAGTTAT,-0.0375
9,GAGGAGC,0.221
10,CACTCCC,-0.00877
11,TCCTTAC,-0.191
12,GTCCATA,0.176
13,AAATCCT,-3.7
14,CGTAATC,0.0529
15,CTTTCGT,-0.154
16,AGTGCCG,-0.136
17,GTTAGGG,-0.071
18,CTTAGTG,-0.0713
19,TACTTGG,0.0172
20,GTGTATG,0.247

row,Sequence,uncleaved DNA left (log2)
1,GGTTGTT,-0.208
2,TATTTGG,-0.00127
3,CTCAGAC,-0.0479
4,CGTAGTC,0.0469
5,AAGTCGT,-0.104
6,CGGGGAG,-0.0592
7,CGGACCT,0.0156
8,ACTCCAC,0.0516
9,ATTTCAC,-0.0966
10,TCAGGTC,-0.0218
11,AACTAGG,0.236
12,ACACAAA,0.0907
13,TCTAGAT,-0.166
14,ACACAGA,0.139
15,TATGTTC,-0.0841
16,GCCCCTG,-0.0865
17,GACGCGT,-0.183
18,CTAGCCA,0.0335
19,GAGACAG,0.244
20,TTGGAGA,-0.0733
